Measured values from PubChem BioAssay AID1030 (National Center for Advancing Translational Sciences (NCATS), 2008).
Values joined by “and” are separate entries in the source; they are usually repeats but may differ in a detail not shown here. Equal values may be shown once. Hit rate of the full screen: of about 220,000 compounds, about 16,000 (7.3%) were called active. Inconclusive results, whose numbers are uncertain, are shown with a selection of clear calls. The call rests on the fitted dose curve; in most records, active means well fitted inhibition curve with a large enough effect (not every such curve was filed as active); inconclusive means small, poorly fitted or top-dose-only effect, or another doubt; inactive means no such curve, though single readings can be large or run the other way. A potency beside an inconclusive call is a rough fit, not a confirmed value.

The molecules below were run against Aldehyde dehydrogenase 1A1 (Homo sapiens) (UniProt P00352) (assay: qHTS Assay for Inhibitors of Aldehyde Dehydrogenase 1 (ALDH1A1)). Conditions: Purified ALDH1A1, NADH fluorescence, propionaldehyde substrate; series mostly up to 75.3 µM.
Potency means the concentration at half of the fitted maximal effect; tags describe the fitted curve by direction and shape.
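Wherever activity, negative = inhibition is given: plate controls were no enzyme wells and a reference inhibitor.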

Sequence of UniProt P00352 (P00352 whole entry, looked up): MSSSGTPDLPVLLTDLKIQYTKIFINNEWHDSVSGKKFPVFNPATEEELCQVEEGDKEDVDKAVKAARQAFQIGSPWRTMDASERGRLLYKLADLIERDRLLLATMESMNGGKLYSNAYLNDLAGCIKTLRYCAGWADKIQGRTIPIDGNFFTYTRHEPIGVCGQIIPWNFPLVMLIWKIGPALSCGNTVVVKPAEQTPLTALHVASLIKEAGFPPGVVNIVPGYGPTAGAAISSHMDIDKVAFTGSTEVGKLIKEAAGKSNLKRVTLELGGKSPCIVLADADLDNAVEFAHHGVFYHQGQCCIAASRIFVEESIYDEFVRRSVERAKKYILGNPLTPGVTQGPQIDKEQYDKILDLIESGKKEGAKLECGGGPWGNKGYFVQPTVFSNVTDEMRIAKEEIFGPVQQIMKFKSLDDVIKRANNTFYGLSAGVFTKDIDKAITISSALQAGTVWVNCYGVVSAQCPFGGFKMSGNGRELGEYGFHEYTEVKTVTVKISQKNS

SMILES | Potency | activity, negative = inhibition
c1ccc(-c2nc(-c3ccccc3)c(Nc3ccc4ccccc4c3)o2)cc1 | inactive | 
N#CC1=C2Sc3ccccc3N2CCCC1=O | inconclusive: 3.55 µM [inhibitor, full curve] | 
COc1ccccc1NC(=O)c1sc2ncn(Cc3ccc(C)cc3)c(=O)c2c1C | inconclusive: 31.6 µM [inhibitor, partial curve] | 
Cc1cccc(-n2c(O)c(C=NCCCN3CCOCC3)c3ccccc3c2=O)c1 | inconclusive: 39.8 µM [inhibitor, single point] | 
COc1ccc(NC(=O)COC(=O)C2CCC(C(C)(C)C)CC2)c([N+](=O)[O-])c1 (stereo unspecified) | inconclusive: 39.8 µM [inhibitor, single point] | 
CCn1c(=O)cc(OCC(=O)N2CCN(c3ccc(F)cc3)CC2)c2ccccc21 | inactive | 
COc1ccc(-n2nc([N+](=O)[O-])c(=NCCc3cccc(C)c3)n2O)cc1 | inconclusive: 20 µM [inhibitor, single point] | 
O=C(CSc1ccc2c(c1)OCCO2)Nc1cccnc1 | inactive | 
COC(=O)c1ccc(NC2=CC(=O)CC(C)(C)C2)cc1 | inactive | 
Oc1ccc(N=Cc2ccc(OCc3ccccc3)cc2)cc1 | active: 20 µM | 
CNC(C)c1ccc(S(N)(=O)=O)cc1 (stereo unspecified) | inconclusive: 37.7 µM [inhibitor, single point] | 
CCS(=O)(=O)N1N=C(c2ccccc2)CC1c1ccc2nccnc2c1 (stereo unspecified) | inconclusive: 44.7 µM [inhibitor, single point] | 
O=C(CSCc1cnn(-c2ccccc2)c1-n1cccc1)NCc1cccnc1 | inconclusive: 7.94 µM [inhibitor, full curve, poor fit] | 
COc1ccc(NC(=O)c2ccc(Cl)c(S(=O)(=O)N3CCc4ccccc4C3)c2)cn1 | inconclusive: 15.8 µM [inhibitor, partial curve, poor fit] | 
O=C(CN1CCC(O)CC1)N1c2ccccc2C=Cc2ccccc21 | inconclusive: 39.8 µM [inhibitor, single point] | 
CCOc1cccc(C(=O)Nc2nnc(-c3ccco3)s2)c1 | inconclusive: 35.5 µM [inhibitor, partial curve] | 
CCOC(=O)Nc1sc(C(=O)N(CC)CC)c(C)c1C(=O)OCC | inconclusive: 25.1 µM [inhibitor, single point] | 
CCCCn1c(SCC(=O)Nc2ccc(OC)cc2)nc2ccc(N3CCOCC3)cc2c1=O | inconclusive: 12.6 µM [inhibitor, partial curve] | 
COc1ccccc1C(=O)Nc1c(C)n(C)n(-c2ccccc2)c1=O | inconclusive: 39.8 µM [inhibitor, single point] | 
CCN(CCO)Cc1cn[nH]c1-c1ccc(C)c(C)c1 | inactive | 
O=C(CCN1CCOCC1)c1ccc(Cl)cc1 | active: 0.0891 µM | 
CCOC(=O)c1nc(N)c(C(=O)OCC)[nH]1 | inconclusive: 28.2 µM [inhibitor, partial curve] | 
O=S(=O)(c1ccc2c(c1)oc1ccccc12)N1CCOCC1 | inactive | 
CC(NC(=O)Cn1cc(C(=O)C2CC2)c2ccccc21)c1ccccc1 (stereo unspecified) | inactive | 

SMILES | Potency | activity, negative = inhibition
Cc1cccnc1NC(=S)Nc1ccc(F)cc1F | inconclusive: 39.8 µM [inhibitor, single point] | 
Cn1cc(CNC(=O)C23CC4CC(CC(C4)C2)C3)cn1 | active: 5.01 µM | 
CC(=O)c1ccc2c3c(cccc13)C(=O)N(CCc1ccccc1)C2=O | inconclusive: 12.6 µM [inhibitor, partial curve] | 
Cc1ccc(NCCC(=O)c2cccs2)cc1Cl | active: 2.51 µM | 
COc1cc(/C=C(\C#N)C(N)=O)cc(CSc2nc3ccccc3s2)c1O | inconclusive: 35.5 µM [inhibitor, single point] and inconclusive: 31.6 µM [inhibitor, single point] and inconclusive: 28.2 µM [inhibitor, partial curve, poor fit] | 
Cc1ccccc1Nc1nnc(SCc2nc3ccccc3c(=O)[nH]2)s1 | inactive | 
COc1cc([C@H]2[C@@H]3CCCC[C@]3(O)CCN2Cc2ccccc2F)ccc1O | inactive | 
O=S1(=O)C=C(Sc2nnc(-c3ccccc3)o2)c2ccccc21 | active: 22.4 µM | 
CC(=O)Cc1nsc(NC(=O)c2ccc(COc3ccc(C)cc3)o2)n1 | inconclusive: 14.1 µM [inhibitor, partial curve] | 
O=C(NCC1CCCO1)/C(=C\c1cccc([N+](=O)[O-])c1)NC(=O)c1ccccc1 (stereo unspecified) | inconclusive: 22.4 µM [inhibitor, single point] | 
CCCCc1cc(=O)oc2cc(OCC(=O)N(CC)CC)ccc12 | inconclusive: 25.1 µM [inhibitor, partial curve] | 
CC(C)CCNc1nc(N)c([N+](=O)[O-])c(NCC2CCCO2)n1 (stereo unspecified) | active: 11.2 µM | 
Cc1onc(C(=O)NN)c1C(=O)N1CCN(C(c2ccccc2)c2ccccc2)CC1 | inconclusive: 39.8 µM [inhibitor, single point] | 
CC(C)(C)c1ccc(C(=O)NCC(=O)OCC(=O)Nc2ccccc2[N+](=O)[O-])cc1 | active: 6.31 µM | 
Cc1cc(C(=O)COC(=O)CN(C)S(=O)(=O)c2ccc(Cl)cc2)c(C)n1CC1CCCO1 (stereo unspecified) | inconclusive: 20 µM [inhibitor, partial curve] | 
CCOC(=O)c1sc(/N=C/C2=C(O)CC(C)(C)CC2=O)c(C(=O)OCC)c1C | active: 11.2 µM | 
CN1CCN(CCC2Oc3cc([N+](=O)[O-])ccc3NC2=O)CC1 (stereo unspecified) | inconclusive: 35.5 µM [inhibitor, single point] | 
N#Cc1c2n(c3c(=O)n(Cc4ccccc4Cl)cnc13)CCCC2 | inconclusive: 20 µM [inhibitor, single point] | 
Fc1cccc(F)c1C(Nc1nncs1)Nc1nncs1 |  | inactive: -0.583% [at 13.5 µM]
COc1cccc(CC(NC(C)=O)C(=O)NC2CCN(c3ncccc3[N+](=O)[O-])CC2)c1 (stereo unspecified) | inactive | 
Cc1cccc(/C=N/NC(=O)c2cc(-c3cccnc3)nc3c2c(C)nn3-c2ccccc2)c1 | inconclusive: 22.4 µM [inhibitor, partial curve] | 
CC1(C)CC(=O)c2sc(NS(=O)(=O)c3ccccc3)nc2C1 | inactive | 
CCOC(=O)CSc1nnc(CNc2ccccc2Cl)n1-c1ccccc1 | inconclusive: 22.4 µM [inhibitor, partial curve] | 
S=C(NCc1ccco1)N1CCN(c2nc(-c3ccccc3)cs2)CC1 | inconclusive: 39.8 µM [inhibitor, single point] | 

SMILES | Potency | activity, negative = inhibition
CC(=O)Nc1ccc(S(=O)(=O)N2CCN=C2C)cc1 | inconclusive: 39.8 µM [inhibitor, single point] | 
COCCNC(=O)C(c1cccnc1)N(Cc1ccccc1)C(=O)Cn1nnc2ccccc21 (stereo unspecified) | inactive | 
COc1cc(/C=N\Nc2cc(=O)n(C)c(=O)n2C)ccc1O | inconclusive: 35.5 µM [inhibitor, single point] | 
CCCn1c(SCC(=O)NCc2ccco2)nnc1-c1ccncc1 | inconclusive: 39.8 µM [inhibitor, single point] | 
CC1(C)C(c2ccccc2)=NC(c2ccc(Br)cc2)N1O (stereo unspecified) | inactive | 
c1ccc(-c2cc(-c3ccncc3)nc3ccc4ccccc4c23)cc1 | inconclusive: 28.2 µM [inhibitor, single point] | 
CC(NC(=O)c1ccccc1O)c1ccccc1 (stereo unspecified) | inconclusive: 39.8 µM [inhibitor, single point] | 
CCOC(=O)CSc1nnc(NC(=O)c2cccc(S(=O)(=O)N3CCCC3)c2)s1 | inconclusive: 39.8 µM [inhibitor, single point] | 
CC1(C)CC(=O)c2cc(C(=O)NCc3ccco3)c(=O)n(-c3ccccc3)c2C1 | inconclusive: 31.6 µM [inhibitor, partial curve] | 
CSCC[C@H](NC(=O)c1ccc(Cl)c([N+](=O)[O-])c1)c1nc2ccccc2[nH]1 | inactive | 
COC(=O)c1c(N2C(=O)[C@H]3[C@@H](C2=O)[C@]2(C(=O)Nc4c(C)cc(C)cc42)N2CCC[C@@H]32)sc(C)c1C | inconclusive: 39.8 µM [inhibitor, single point] | 
CCn1nnnc1-c1ccc(OC)c(S(=O)(=O)NCCc2ccccc2)c1 | inconclusive: 10 µM [inhibitor, partial curve, poor fit] | 
COc1ccc2c(=O)cc(C(F)(F)C(F)(F)F)oc2c1 | inconclusive: 4.47 µM [inhibitor, partial curve] | 
O=C(OC1CCOC1=O)c1ccc(NS(=O)(=O)c2cccs2)cc1 (stereo unspecified) | inconclusive: 39.8 µM [inhibitor, single point] | 
COc1ccc(-c2cc(C(F)(F)F)n3nc(C(=O)N(C)Cc4ccccc4)cc3n2)cc1OC | inconclusive: 39.8 µM [inhibitor, single point] | 
O=C(Nc1ccon1)C1CCN(S(=O)(=O)c2cccs2)CC1 | inactive | 
CCOC(=O)C1(Cc2ccccc2)CCN(Cc2ccc3c(c2)OCCO3)CC1 | inconclusive: 25.1 µM [inhibitor, single point] | 
C/C=C(/C)C#N | inactive | 
COc1ccccc1OCc1ccc(C(=O)NN)cc1 | active: 14.1 µM | 
COc1ccccc1-c1cc(C(F)(F)F)nc(N2CCCC2)n1 | inconclusive: 39.8 µM [inhibitor, single point] | 
Cc1ccc(OCCNS(=O)(=O)c2ccc(N3CCCC3=O)cc2)cc1 | inactive | 
Nc1ccc(/C=C/C(=O)c2cccs2)cc1 | inactive | 
COc1ccc(CN(CC2CCC(C(=O)O)CC2)C(=S)Nc2cc(C)cc(C)c2)cc1 (stereo unspecified) | inconclusive: 39.8 µM [inhibitor, single point] | 
